{"source": "patent EP4692351A1", "about": "“ANTI-CD25 ANTIBODY AND ANTI-CD25 ANTIBODY-DRUG CONJUGATE” (priority 2023, dated 2024)", "molecules": {"B1": {"name": "hMAb1A-ADC (conjugate)", "heavy": "EVQLVESGGGLVQPGGSLRLSCAASGFTFNNYYMVWVRQAPGKGLEWVAYISTGGGTTYYRESVKGRFTISRDNSKSTLYLQMNSLRAEDTAVYYCTTSVYFSDGSSHYDGEWFAYWGQGTLVTVSS[letters of human IgG1 constant region left out]", "light": "DIVMTQSPDSLAVSLGERATINCKASESVSTRMHWYQQKPGQPPKLLIYKASNLASGVPARFSGSGSGTDFTLTISSLQAEDVAVYYCQQSWNGWAFGQGTKVEIKRTVAAPSVFIFPPSDEQLKSGTASVVCLLNNFYPREAKVQWKVDNALQSGNSQESVTEQDSKDSTYSLSSTLTLSKADYEKHKVYACEVTHQGLSSPVTKSFNRGEC"}}, "test_system": "CD25-negative human tumor cell line Daudi", "assay": "Cell proliferation suppression assay, CD25-negative Daudi", "format": "cell-based", "conditions": "CD25-negative cells; 6 days; CellTiter-Glo", "experimental": "A CD25-positive human tumor cell line Karpas-299 was subcultured in RPMI1640 (Thermo Fisher Scientific Inc.) medium containing 2 mM glutamine (Life Technologies Corp.) and 20% FBS under conditions of 37°C and 5% CO2. A CD25-negative human tumor cell line Daudi was subcultured in RPMI1640 medium containing 10% FBS under conditions of 37°C and 5% CO2.\nThe cultured Karpas-299 was inoculated at 1 × 10^3 cells/50 µL/well in RPMI1640 medium containing 2 mM glutamine and 20% FBS to 96 well clear U bottom microplate (Corning Inc.). cMAb1_hIgG1LALA was added at 0.015 µg/mL to 15 µg/mL, and control hIgG1LALA-ADC and cMAb1_hIgG1LALA-ADC were added at 0.0015 µg/mL to 1.5 µg/mL. The cells were cultured for 6 days under conditions of 37°C and 5% CO2. The incubated plate was left standing at room temperature for 30 minutes. Reagent solution of CellTiter-Glo(TM) Luminescent Cell Viability Assay (Promega Corp.) was added at 100µL/well, and the plate was mixed at room temperature for 10 minutes under light shielding using a plate mixer (Taitec Corp.). 100 µL of the solution of each well was added to each well of 96 well white flat bottom microplate (Corning Inc.), and luminescence intensity (relative light unit (RLU)) was measured using a plate reader (Ensight: PerkinElmer, Inc.) and used as an index for the number of cells.\nCell proliferation suppressive activity against the CD25 expression-negative human tumor cell line DauDi was measured in the same manner as above using RPMI1640 medium (Thermo Fisher Scientific Inc.) containing 10% FBS (GE Healthcare Bio-Sciences Corp.). Daudi was inoculated at 1 × 10^4 cells/50 µL/well. […]\nThe test was carried out in accordance with 9)-1-2. […] 100 µL/well of the reaction solution was transferred to 96-well White Flat Bottom plate, and luminescence intensity (relative light unit (RLU)) was measured using a plate reader (Ensight: PerkinElmer, Inc.) and used as an index for the number of cells."}
{"molecule": "B1", "values": [{"measurement": "cell proliferation suppressive activity against Daudi", "result": "exhibited no cell proliferation suppressive activity"}]}
